No constants are given. Whether binding was seen depends on the method and setting. In cells and extracts the contact can be indirect. Some results given as binding are weak or reduced against the parent protein; the word gives no strength. Where a sequence is shown, tags or fusion partners need not be part of it.
Legend:
Test in all cases: co-IP
[1] = molecular target: T1, EBV BFLF2, Flag-tagged (pcDNA-BFLF2-Flag) (Epstein-Barr virus (EBV), strain B95-8) (UniProt P0CK47)
T1 sequence: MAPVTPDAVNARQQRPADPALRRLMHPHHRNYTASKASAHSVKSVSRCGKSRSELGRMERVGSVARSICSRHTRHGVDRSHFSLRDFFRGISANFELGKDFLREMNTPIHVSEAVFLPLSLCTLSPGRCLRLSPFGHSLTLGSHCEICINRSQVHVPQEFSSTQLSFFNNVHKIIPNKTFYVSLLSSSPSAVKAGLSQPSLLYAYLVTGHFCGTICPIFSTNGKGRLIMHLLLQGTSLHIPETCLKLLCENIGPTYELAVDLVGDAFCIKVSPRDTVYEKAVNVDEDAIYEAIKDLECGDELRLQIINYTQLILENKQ

Chains of the proteins cited; added tags and fusions are not shown.
UniProt P16794: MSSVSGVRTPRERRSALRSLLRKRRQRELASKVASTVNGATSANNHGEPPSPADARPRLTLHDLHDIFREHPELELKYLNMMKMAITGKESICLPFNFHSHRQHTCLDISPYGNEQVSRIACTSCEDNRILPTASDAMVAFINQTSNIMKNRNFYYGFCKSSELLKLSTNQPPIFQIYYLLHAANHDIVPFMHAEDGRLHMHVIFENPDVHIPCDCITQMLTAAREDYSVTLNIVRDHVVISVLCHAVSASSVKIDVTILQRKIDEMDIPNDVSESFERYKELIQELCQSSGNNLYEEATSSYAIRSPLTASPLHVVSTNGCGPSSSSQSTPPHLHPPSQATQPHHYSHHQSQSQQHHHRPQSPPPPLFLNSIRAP

[2] = molecular target: HCMV pUL53, Flag-tagged (pcDNA-UL53-Flag) (human cytomegalovirus (HCMV)) (UniProt P16794)
[3] = molecular target: T2, VZV Orf27, Flag-tagged (pcDNA-Orf27-Flag) (varicella zoster virus (VZV), strain Oka) (UniProt Q4JQU8)
T2 sequence: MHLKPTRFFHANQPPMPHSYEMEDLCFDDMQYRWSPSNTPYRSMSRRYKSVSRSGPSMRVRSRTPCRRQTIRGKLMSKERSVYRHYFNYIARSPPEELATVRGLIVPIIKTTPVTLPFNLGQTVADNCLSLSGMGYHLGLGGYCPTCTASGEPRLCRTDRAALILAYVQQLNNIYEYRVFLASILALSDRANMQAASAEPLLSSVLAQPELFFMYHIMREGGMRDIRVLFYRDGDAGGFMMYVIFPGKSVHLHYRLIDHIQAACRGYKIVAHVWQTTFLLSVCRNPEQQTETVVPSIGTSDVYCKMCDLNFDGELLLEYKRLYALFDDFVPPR

B1: EBV BFRF1, HA-tagged (pcDNA-BFRF1-HA) (protein, UniProt P03185 1-336)
chain: MASPEERLLDELNNVIVSFLCDSGSLEVERCSGAHVFSRGSSQPLCTVKLRHGQIYHLEFVYKFLAFKLKNCNYPSSPVFVISNNGLATTLRCFLHEPSGLRSGQSGPCLGLSTDVDLPKNSIIMLGQDDFIKFKSPLVFPAELDLLKSMVVCRAYITEHRTTMQFLVFQAANAQKASRVMDMISDMSQQLSRSGQVEDTGARVTGGGGPRPGVTHSGCLGDSHVRGRGGWDLDNFSEAETEDEASYAPWRDKDSWSESEAAPWKKELVRHPIRRHRTRETRRMRGSHSRVEHVPPETRETVVGGAWRYSWRATPYLARVLAVTAVALLLMFLRWT
binding [1]: binds
binding [2]: no binding
binding [3]: no binding

— article PMC7150769
